Measured values: PubChem BioAssay AID504706 (National Center for Advancing Translational Sciences (NCATS), 2011)
Screen size: about 320,000 compounds; about 200 (0.062%) were called active. The inconclusive results got no clear call from the source; some entries with a clear call stand among them for comparison. Calls follow the shape of the dose curve; as a rule, active = well fitted activation curve with a large enough effect; inconclusive = small, poorly fitted or top-dose-only effect; inactive = no such curve, though single readings can be large or run the other way. No potency is given beside an inconclusive call; the fits are too rough.

Test: qHTS assay for re-activators of p53 using a Luc reporter; also: nearly all actives have a fitted effect of over 45% in size; as to activity change, positive = activation: % of control where 0% means no effect
Settings: H1299 p53-A138V BP100-luciferase reporter, luminescence, 24 h; series mostly up to 92.2 µM; activity change, positive = activation: at the top concentration
Method in brief: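 p53-null H1299 cells stably carrying temperature-sensitive p53-A138V and a BP100-luciferase reporter were pinned with compounds (4-point, 1:5 series) and held 24 hrs at 37 deg C. Luminescence was read 10 min after detection reagent.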
Potency is read from the fitted curve at half-maximal effect; tags tell the direction and shape of the fitted curve.

SMILES	activity change, positive = activation	Potency
CCc1nnc(NC(=O)CSc2nc3cc4c(cc3cc2CC)OCCO4)s1	inactive: 4.88%	
O=C(Nc1ccc(Br)cn1)c1cccc(-c2cc3ccccc3oc2=O)c1		inconclusive [activator, partial curve, poor fit]
CCC(C)NC(=O)Nc1ccc(Br)cc1 (stereo unspecified)	inactive: -0.709%	
COc1ccccc1N1CCN(C(=O)CN(CCc2ccccc2)S(C)(=O)=O)CC1		inconclusive [activator, single point]
O=C(CSc1n[nH]c(=O)n1-c1cccnc1)N1CCOCC1		inconclusive [activator, partial curve, poor fit]
CN/N=C(\Cc1nc2ccccc2[nH]1)c1ccc([N+](=O)[O-])cc1	inactive: 3.9%	
O=c1sc2ccccc2n1CCOc1ccccc1		inconclusive [activator, full curve, poor fit]
COc1ccc(CNC(=O)c2cc3c(=O)n4cccc(C)c4nc3n(CC3CCCO3)c2=N)cc1 (stereo unspecified)	inactive: 3.68%	
Cc1cc(OCCN2CCOCC2)ccc1[N+](=O)[O-]		inconclusive [activator, partial curve, poor fit]
COC(=O)c1ccc(-n2nnnc2SCC(=O)Nc2ccccc2F)cc1		inconclusive [activator, partial curve, poor fit]
O=C(CSc1ccc(-c2nc3ccccc3[nH]2)cn1)N1CCN(C(=O)c2ccco2)CC1		inconclusive [activator, single point]
COc1ccc(OC)c(NC(=O)Nc2ccc3c(c2)OCO3)c1	inactive: -11.4%	
COc1ccc2c(c1)O/C(=C\c1ccccc1C)C2=O		inconclusive [activator, partial curve, poor fit]
Cc1nc(Nc2ccccc2)sc1-c1ccccc1		inconclusive [activator, partial curve, poor fit]
C=CCNc1nc(-c2sc(NC(=O)CC)nc2C)cs1		inconclusive [activator, partial curve, poor fit]
O=C(CCCc1ccccc1)Nc1ccnn1C1CCN(Cc2ccc(CO)o2)CC1	inactive: 15.1%	
Cc1ccc(NC(=O)c2sc3ccccc3c2Cl)nc1		inconclusive [activator, full curve, poor fit]
O=[N+]([O-])c1ccccc1/C=C/C=N/Nc1nc(N2CCCCC2)nc(N2CCCCC2)n1	inactive: 2.39%	
CC(=O)c1c(C)[nH]c(C(=O)COC(=O)c2cccs2)c1C		inconclusive [activator, partial curve, poor fit]
COc1ccc(CN2C(=O)CS/C2=N/N=C/c2ccccc2)cc1		inconclusive [activator, partial curve, poor fit]
Cc1ccc(NC(=O)NC(=O)CN2CCCC2c2ccc3c(c2)OCCO3)cc1C (stereo unspecified)		inconclusive [activator, full curve, poor fit]
Cc1ccccc1C(=O)Nc1nnc(SC(C)C)s1		inconclusive [activator, single point]
N=c1c2c3c(sc2ncn1N)CCC3	inactive: 6.02%	

SMILES	activity change, positive = activation	Potency
Cc1cc(C)cc(C(=O)O/N=C(\N)c2ccc(Br)cc2)c1	inactive: 1.69%	
COc1ccc(NC(=O)CCC(=O)N2CCCC2)c([N+](=O)[O-])c1		inconclusive [activator, single point]
CC(=O)Nc1nc(-c2ccc3c(c2)CCN3S(C)(=O)=O)cs1	inactive: -9.45%	
c1ccc(-c2cnc(-c3cccnc3)o2)cc1		active: 25.1 µM
COc1cc(/C=C2/SC(=S)N(CC3CCCO3)C2=O)ccc1O (stereo unspecified)		inconclusive [activator, partial curve, poor fit]
Clc1ccc(/C=C/c2nc3ccccc3[nH]2)c(Cl)c1	inactive: -9.52%	
CCOC(=O)N1CCN(C(=O)CSCC(=O)Nc2nc(-c3ccc(Cl)s3)cs2)CC1		inconclusive [activator, partial curve, poor fit]
O=[N+]([O-])c1cccc(NN=Nc2ccccc2)c1		inconclusive [activator, full curve, poor fit]
CCOC(=O)c1c(C)[nH]c(C(=O)Nc2ccc(C)c(Cl)c2)c1C		inconclusive [activator, full curve, poor fit]
Cc1ccccc1/C=N/NC(=O)c1ccc(-n2cnnn2)cc1	inactive: -2.41%	
O=C(NNC(=O)C12CC3CC(CC(C3)C1)C2)c1ccccn1		inconclusive [activator, single point]
O=S(=O)(NCC1(N2CCOCC2)CCCCC1)c1ccc(Cl)cc1C(F)(F)F		inconclusive [activator, single point]
CCOC(=O)c1sc(=NC(=O)c2ccc(C)c(C)c2)n(C)c1C	inactive: 2.94%	
O=C1c2cccc3cccc(c23)C(=O)N1c1ccccn1	inactive: -1.42%	
CCC(C)C(=O)Nc1nc(C)c(-c2csc(Nc3cc(Cl)ccc3OC)n2)s1 (stereo unspecified)	inactive: 5.64%	
O=C(Nc1ccc(CN2CCOCC2)cc1)c1ccc2ccccc2c1		inconclusive [activator, full curve, poor fit]
Cc1ccc(-c2nn(-c3ccccc3)cc2C(=O)O)o1	inactive: -0.323%	
COC(=O)c1cc2ccccc2c(=O)s1		inconclusive [activator, single point]
Cc1ccc(-c2csc(NC(=O)c3c(C)noc3C)n2)cc1		inconclusive [activator, single point]
COc1ccccc1-c1nnc(NC(=O)C2=COCCO2)o1		inconclusive [activator, single point]
CC(=O)Oc1ccc2c(c1)C(=O)c1ccccc1C2=O		inconclusive [activator, single point]
Cc1nc2c(oc3ccccc32)c(=O)o1		inconclusive [activator, partial curve, poor fit]
CCCN1C(=O)SC(CC(=O)Nc2cccc3ccccc23)C1=O (stereo unspecified)		inconclusive [activator, partial curve, poor fit]
